Test results published in PubChem BioAssay AID1347073 (National Center for Advancing Translational Sciences (NCATS), 2019).
Hit rate of the full screen: of about 45,000 compounds, about 200 (0.44%) were called active. Another 7% or so got no clear call; they are omitted. The call rests on the fitted dose curve; in most records, active means well fitted activation curve with a large enough effect; inconclusive means small, poorly fitted or top-dose-only effect; inactive means no such curve, though single readings can be large or run the other way. This is one part of the list.

test: qHTS of TDP-43 Inhibitors: NCGC Sytravon Library Screen; conditions: yeast TDP-43 toxicity rescue, BacTiter-Glo growth, 24 h; series mostly up to 46.1 µM; growth rescue (activation): at the top concentration; further: 0% is about no effect; nearly all actives have a fitted effect of over 55% in size
Summary of the method: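 TDP-43-expressing yeast, pregrown in raffinose, seeded at OD600 0.02 in galactose medium with compound for 24 hr at 30 deg C. Growth read by BacTiter-Glo luminescence, so rescue of toxicity appears as activation.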

SMILES	growth rescue (activation)
CC(=O)C1=C(C)NC(SCC(=O)Nc2nccs2)=C(C#N)C1c1ccccc1Cl (stereo not given)	inactive: 6.99%
Cc1cc(C)n2nc(C(=O)OCC(=O)c3cc(C)n(CC4CCCO4)c3C)nc2n1 (stereo not given)	inactive: 1.94%
CCn1cc(C(=O)N[C@@H](C)C(=O)NCCCO)c(=O)c2cc3c(cc21)OCO3	inactive: 5.99%
Brc1ccccc1/C=N/Nc1nc2ccccc2o1	inactive: -6.7%
COc1cc(OC)c(NC(=O)C(=O)CC(=O)c2ccc(C)cc2C)cc1Cl	inactive: -1.18%
O=C(NCC(c1ccc(F)cc1)N1CCOCC1)c1c(F)cccc1F (stereo not given)	inactive: 1.05%
CC1=C(C(=O)OC(C)C)C(c2cccs2)NC(=S)N1 (stereo not given)	inactive: -28.9%
CC(=O)N1c2ccc([N+](=O)[O-])cc2NC(=O)CC1C (stereo not given)	inactive: 12.9%
CC(=O)N1CCc2ccccc2C1CC(=O)O (stereo not given)	inactive: -7.07%
COc1ccc(C(=O)OCC(=O)c2ccc(F)cc2)cc1OC	inactive: 11.9%
Cc1onc(-c2ccccc2Cl)c1C(=O)Nc1ccc(N2CCOCC2)cc1	inactive: 5.37%
O=C(CN1CCN(Cc2ccccc2)CC1)N/N=C/C=C/c1ccccc1[N+](=O)[O-]	inactive: 11.9%
O=C(Cn1cnnn1)NCc1ccccc1	inactive: 0.791%
Cc1c(C(=O)N/N=C/c2cccnc2)nnn1-c1nonc1N	inactive: 3.47%
Cc1ccc(S(=O)(=O)N2CCC[C@H]2C(=O)Oc2ccccc2)cc1	inactive: -5.95%
O=C(NCCN1CCOC1=O)C1CCC(=O)N(CCc2ccc(Cl)cc2)C1 (stereo not given)	inactive: -8.67%
CCC(C)Nc1nc2c(c(=O)[nH]c(=O)n2C)n1CCCc1ccccc1 (stereo not given)	inactive: 1.48%
O=C(CCc1c[nH]c2ccccc12)NCc1cccc(Cl)c1	inactive: -9.62%
O=C1CSc2ccc(C(=O)O)cc2N1	inactive: -7%
COc1ccc(NC(=O)Cn2c(=O)n(-c3cccc(C(F)(F)F)c3)c(=O)c3sccc32)cc1	inactive: 12.3%
O=C(CCS(=O)(=O)c1ccc(Cl)cc1)Nc1ccc(F)cc1	inactive: -0.889%
CC(C)N1C(=O)C(=O)N(CC(=O)N2c3ccccc3NC(=O)CC2C)C1=O (stereo not given)	inactive: 8.41%
CCN1CCN(C(=O)CSc2nc(N)cc(N)n2)CC1	inactive: -12.7%
C/C(=C\c1ccccc1)CN1CCC(C(=O)N2CCCCC2)CC1	inactive: -1.97%
Cc1cc(C)c(S(=O)(=O)/N=C2/C=C(SCC(=O)O)C(=O)c3ccccc32)cc1C	inactive: 8.67%
CC(=O)Nc1ccc(C(=O)CSc2nccc(=O)[nH]2)cc1	inactive: 3.31%
COc1cc(NC(=O)Cc2cccs2)c(C(=O)O)cc1OC	inactive: -9.97%
O=C(Oc1ccc(Cl)c2cccnc12)c1cccc([N+](=O)[O-])c1	inactive: 22.3%

SMILES	growth rescue (activation)
Cc1nc2nc(CSc3nnc(C)s3)cc(=O)n2[nH]1	inactive: 4.9%
CCc1nc2c(OCc3ccc(C(F)(F)F)cc3)cccn2c1N(C=O)Cc1ccc(OC)cc1	inactive: 0.959%
CCOC(=O)/C(N=Nc1c(C)n(C)n(-c2ccccc2)c1=O)=C(\C)O	inactive: 10.2%
Cc1ccc(N=CC2=C(O)CC(c3cccc(Cl)c3)CC2=O)cc1 (stereo not given)	inactive: 5.87%
COc1ccc(NC(=O)CSc2nc(C)cs2)cc1	inactive: 15.3%
CC(C)c1onc(C(=O)N2CCOCC2)c1[N+](=O)[O-]	inactive: 3.82%
Nc1n[nH]c(C(F)(F)F)c1-c1ccccc1	inactive: 3.03%
O=C(O)c1ccc(S(=O)(=O)NCC2CCCCC2)cc1	inactive: -4.66%
COc1ccc(N(CC(=O)NCc2ccc(Cl)cc2)S(=O)(=O)c2ccccc2[N+](=O)[O-])c(OC)c1	inactive: -3.36%
COCc1ccc(C(=O)N2CCCC(Nc3ccc(C(C)C)cc3)C2)s1 (stereo not given)	inactive: 35.8%
O=C([C@H](Cc1ccccc1)N1C(=O)c2ccccc2C1=O)N1CCOCC1	inactive: 21.5%
O=C(CC1NCCc2ccccc21)Nc1ccc(Cl)cc1 (stereo not given)	inactive: -0.565%
O=C(CNc1cccc(C(F)(F)F)c1)N/N=C/c1cn(-c2ccccc2)nc1-c1ccccc1	inactive: -17.4%
O=C(CN1CSCC1=O)N1CCN(S(=O)(=O)c2cc(C(F)(F)F)ccc2Cl)CC1	inactive: 24.8%
CCc1nc2c(OCCc3cccc(OC)c3)cccn2c1N(C)C(=O)c1cccs1	inactive: 9.62%
CC(=O)c1cccc(-c2ccnc3c2CC(C(=O)NCC2CC2)O3)c1 (stereo not given)	inactive: 7.31%
CCCC(=O)Nc1nc(C)c(C(C)=O)s1	inactive: 10.5%
Cc1ccc(CNC(=O)c2ccc(N(C)S(=O)(=O)c3ccccc3)cc2)cc1	inactive: 18.4%
O=C(COC(=O)[C@@H]1CCCN1S(=O)(=O)c1ccc(Cl)cc1)NCC(F)(F)F	inactive: 3%
CN(CC(=O)Nc1ccccc1C(=O)NC1CC1)Cc1ccccc1F	inactive: 5.18%
Cn1c(=O)c(=O)n(C)c2cc(S(=O)(=O)NCCOc3ccccc3Cl)ccc21	inactive: 8.94%
CCNC(=O)c1ccccc1SCc1ccccc1	inactive: 15.2%
COc1ccccc1C(=O)C1CCCN(Cc2cccc3nccnc23)C1 (stereo not given)	inactive: 3.58%
O=C(NC1CCCC1)c1cc(-c2ccc(Cl)cc2)on1	inactive: 27.5%
O=C(NN1C(=O)/C(=C/C=C/c2ccco2)SC1=S)c1ccccc1O	inactive: -12.9%
Cc1ccc(NC(=O)COC(=O)Cn2cnc3ccccc32)c(C)c1	inactive: 18.9%
CCCCN(CC)Cc1ccc(CNC(=S)Nc2c(C)cc(C)cc2C)o1	inactive: 7.85%
